Measured values: PubChem BioAssay (Tox21)
The inconclusive results got no clear call from the source; some entries with a clear call stand among them for comparison. For some assays here: A potency beside an inconclusive call is a rough fit, not a confirmed value. Activity calls are given as the source filed them. Unless noted, calls come from the whole dose curve.

molecular target: Estrogen receptor (Homo sapiens) (UniProt P03372); assay: qHTS assay to identify small molecule antagonists of the estrogen receptor alpha (ER-alpha) signaling pathway using the BG1 cell line in the presence of 0.1 nM 17-beta-estradiol (AID 1259244; active = well fitted curve in the direction sought with a large enough effect in the repeat runs; inconclusive = weak or mixed curves; inactive = no such curve, though single readings can be large; an effect the other way counts as inactive or inconclusive; note: nearly all actives have a fitted effect of over 50% in size; for activity change, negative = inhibition: % is set by controls: 0 for no effect and ±100 for the full control effect); conditions: VM7Luc4E2 (BG1) ERE-luciferase, antagonist mode, 0.1 nM E2, 22 h; series mostly up to 92.4 µM; activity change, negative = inhibition: at the top concentration
Outline: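 Seeding of stripped-serum-adapted VM7Luc4E2 cells, 24 h attachment, compound transfer, then 0.1 nM final 17beta-estradiol; after 22 h incubation, ONE-Glo reagent and luminescence reading.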
Potency is the fitted concentration of half-maximal effect; tags give direction and shape of the fitted curve.

Sequence of UniProt P03372 (P03372 whole entry, looked up): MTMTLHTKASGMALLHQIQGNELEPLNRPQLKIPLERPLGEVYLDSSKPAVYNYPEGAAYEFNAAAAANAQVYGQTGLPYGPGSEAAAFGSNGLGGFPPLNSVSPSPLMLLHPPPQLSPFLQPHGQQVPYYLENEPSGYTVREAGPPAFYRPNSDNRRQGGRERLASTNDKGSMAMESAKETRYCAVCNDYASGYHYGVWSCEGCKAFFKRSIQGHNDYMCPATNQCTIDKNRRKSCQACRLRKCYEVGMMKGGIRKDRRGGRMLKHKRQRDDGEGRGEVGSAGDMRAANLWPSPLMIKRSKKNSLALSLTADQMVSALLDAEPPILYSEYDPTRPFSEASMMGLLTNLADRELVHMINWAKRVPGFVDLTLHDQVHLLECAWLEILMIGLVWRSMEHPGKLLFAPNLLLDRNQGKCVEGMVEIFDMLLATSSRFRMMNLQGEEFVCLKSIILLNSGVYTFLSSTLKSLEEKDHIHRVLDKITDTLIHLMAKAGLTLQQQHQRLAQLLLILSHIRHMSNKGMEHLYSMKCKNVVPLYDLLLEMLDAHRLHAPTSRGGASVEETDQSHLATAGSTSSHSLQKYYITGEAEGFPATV

| SMILES | Potency | activity change, negative = inhibition |
| --- | --- | --- |
| COC(=O)C1=C(C)NC(C)=C(C(=O)OCCN2CCN(C(c3ccccc3)c3ccccc3)CC2)C1c1cccc([N+](=O)[O-])c1 (stereo not given) | inconclusive: 16.8 µM [inhibitor, partial curve] | – |
| O=C1c2c(O)ccc(Nc3ccc(CCO)cc3)c2C(=O)c2c([N+](=O)[O-])ccc(O)c21 | – | inactive: -14.1% |
| COc1cc(S(=O)(=O)O)c(C)cc1N=Nc1c(O)ccc2cc(S(=O)(=O)O)ccc12 | inconclusive: 27.3 µM [inhibitor, partial curve] | – |
| O=C(O)COCCN1CCN(C(c2ccccc2)c2ccc(Cl)cc2)CC1 (stereo not given) | inactive | – |
| O=C(CCCN1CCN(c2ccc(F)cc2)CC1)NC1c2ccccc2CSc2ccccc21 (stereo not given) | inconclusive: 29.8 µM [inhibitor, single point] | – |

tested on: not listed separately; assay: qHTS assay to identify small molecule phospholipidosis (PLD) inducers (AID 1259344; active = well fitted curve in the direction sought with a large enough effect; inconclusive = small, poorly fitted or top-dose-only effect, or another doubt; inactive = no such curve, though single readings can be large; an effect the other way counts as inactive or inconclusive; for PLD induction: % is set by controls: 0 for no effect and ±100 for the full control effect); conditions: HepG2 phospholipidosis, LipidTOX Red imaging, 24 h; series mostly up to 38.3 µM; PLD induction: at the top concentration
Outline: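 Read-out is LipidTOX Red fluorescence (ex 595/em 615) imaged in HepG2 cells after 24 h compound exposure at 37 C, with Hoechst nuclear counterstain (ex 352/em 461) allowing per-cell normalisation.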

| SMILES | Potency | PLD induction |
| --- | --- | --- |
| O=C1[C@H]2CCCC[C@H]2C(=O)N1CCCCN1CCN(c2nsc3ccccc23)CC1 | active: 14.1 µM | – |
| CCCCCCC[N+](CC)(CC)CCCCc1ccc(Cl)cc1 | – | inactive: -0.536% [at 15.5 µM] |
| CCCc1c2oc(C(=O)O)cc(=O)c2cc2c(=O)cc(C(=O)O)n(CC)c12 | inconclusive: 3.16 µM [activator, partial curve, poor fit] | – |
| O=C1C(c2[nH]c3ccc(S(=O)(=O)O)cc3c2O)=Nc2ccc(S(=O)(=O)O)cc21 | inconclusive: 28.2 µM [activator, single point] | – |
| CC[C@H]1OC(=O)[C@H](C)[C@@H](O[C@H]2C[C@@](C)(OC)[C@@H](O)[C@H](C)O2)[C@H](C)[C@@H](O[C@@H]2O[C@H](C)C[C@H](N(C)C)[C@H]2O)[C@](C)(O)C[C@@H](C)CN(C)[C@H](C)[C@@H](O)[C@]1(C)O | inconclusive: 12.6 µM [activator, single point] | – |

tested on: not listed separately; assay: qHTS assay to identify small molecule HDAC inhibitors - cell viability counter screen (AID 1259365; active = well fitted curve in the direction sought with a large enough effect in the repeat runs; inconclusive = weak or mixed curves; inactive = no such curve, though single readings can be large; an effect the other way counts as inactive or inconclusive; note: nearly all actives have a fitted effect of over 50% in size); conditions: HCT-116 viability, CellTiter-Glo ATP luminescence, 2 h; series mostly up to 92.4 µM; activity change, negative = cytotoxicity: at the top concentration
Outline: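 HCT-116 wild-type, overnight attachment; 2hr drug exposure, 37C; CellTiter-Glo luminescent ATP readout after 30min RT.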

| SMILES | Potency |
| --- | --- |
| O=C1c2c(O)ccc(Nc3ccc(CCO)cc3)c2C(=O)c2c([N+](=O)[O-])ccc(O)c21 | inconclusive: 54.5 µM [cytotoxic] |
| COc1cc(S(=O)(=O)O)c(C)cc1N=Nc1c(O)ccc2cc(S(=O)(=O)O)ccc12 | inconclusive: 27.3 µM [cytotoxic, partial curve] |
| COc1ccccc1N=Nc1c(S(=O)(=O)O)cc2cc(S(=O)(=O)O)cc(NC(C)=O)c2c1O | active: 25.7 µM |
| O=C1C(c2[nH]c3ccc(S(=O)(=O)O)cc3c2O)=Nc2ccc(S(=O)(=O)O)cc21 | inconclusive: 61.1 µM [cytotoxic] |

tested on: not listed separately; assay: qHTS assay to identify small molecule agonists of the sonic hedgehog signaling (Shh) pathway - cell viability counter screen (AID 1259366; active = well fitted curve in the direction sought with a large enough effect in the repeat runs; inconclusive = weak or mixed curves; inactive = no such curve, though single readings can be large; an effect the other way counts as inactive or inconclusive; note: nearly all actives have a fitted effect of over 50% in size); conditions: NIH/3T3 Gli1-Luc viability, CellTiter-Fluor, 24 h; series mostly up to 92.4 µM; viability change, negative = cytotoxic: at the top concentration
Outline: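 Compounds in DMSO were pin-transferred onto 3T3 Gli1-Luc cells that had settled 4hr; plates then stood 24hr at 37C and 5% CO2. One hour before the end, CellTiter-Fluor was added and fluorescence recorded.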

| SMILES | Potency |
| --- | --- |
| [Cl][Dy]([Cl])[Cl] | inconclusive: 7.7 µM [rising, full curve] |
| O=C1[C@H]2CCCC[C@H]2C(=O)N1CCCCN1CCN(c2nsc3ccccc23)CC1 | active: 15 µM |
| O=C1c2c(O)ccc(Nc3ccc(CCO)cc3)c2C(=O)c2c([N+](=O)[O-])ccc(O)c21 | inconclusive: 30.6 µM [cytotoxic, partial curve] |
| CCOC(=O)C1=C(C)NC(C)=C(C(=O)OC)C1c1cccc([N+](=O)[O-])c1 (stereo not given) | inconclusive: 29.8 µM [cytotoxic, partial curve, poor fit] |
| COc1cc2c(cc1OC)C(C(C(=O)N(CCc1ccc(OC)c(OC)c1OC)CCc1ccc(OC)c(OC)c1OC)c1ccccc1)=NCC2 (stereo not given) | inconclusive: 1.5 µM [cytotoxic, full curve] |
| COc1ccccc1N=Nc1c(S(=O)(=O)O)cc2cc(S(=O)(=O)O)cc(NC(C)=O)c2c1O | active: 25.7 µM |
| CC[C@H]1OC(=O)[C@H](C)[C@@H](O[C@H]2C[C@@](C)(OC)[C@@H](O)[C@H](C)O2)[C@H](C)[C@@H](O[C@@H]2O[C@H](C)C[C@H](N(C)C)[C@H]2O)[C@](C)(O)C[C@@H](C)CN(C)[C@H](C)[C@@H](O)[C@]1(C)O | inconclusive: 51 µM [cytotoxic, single point] |
| O=C(/C=C/c1ccc(O)c(O)c1)O[C@@H](C(=O)O)[C@@H](OC(=O)/C=C/c1ccc(O)c(O)c1)C(=O)O | inconclusive: 61 µM [cytotoxic, single point] |
| O=C(CCCN1CCN(c2ccc(F)cc2)CC1)NC1c2ccccc2CSc2ccccc21 (stereo not given) | inconclusive: 18.8 µM [cytotoxic, partial curve] |

tested on: not listed separately; assay: qHTS assay to identify small molecule antagonists of the sonic hedgehog signaling (Shh) pathway - cell viability counter screen (AID 1259367; active = well fitted curve in the direction sought with a large enough effect in the repeat runs; inconclusive = weak or mixed curves; inactive = no such curve, though single readings can be large; an effect the other way counts as inactive or inconclusive; note: nearly all actives have a fitted effect of over 55% in size; for viability change, negative = cytotoxic: % is set by controls: 0 for no effect and ±100 for the full control effect); conditions: NIH/3T3 Gli1-Luc viability, CellTiter-Fluor, 24 h; series mostly up to 92.4 µM; viability change, negative = cytotoxic: at the top concentration
Outline: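 Fluorescence read-out (CellTiter-Fluor, 1 hr at 37C) taken after 23 hr compound treatment of 3T3 Gli1-Luc cells stimulated with conditioned medium. Cells were seeded at 2,000 per well and pre-incubated 4 hr.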

| SMILES | viability change, negative = cytotoxic | Potency |
| --- | --- | --- |
| [Cl][Dy]([Cl])[Cl] | inactive: 26.1% | – |
| O=C1c2c(O)ccc(Nc3ccc(CCO)cc3)c2C(=O)c2c([N+](=O)[O-])ccc(O)c21 | – | active: 48.6 µM |
| Cc1ccc(S(=O)(=O)C(I)I)cc1 | – | active: 7.7 µM |

tested on: not listed separately; assay: qHTS assay to identify small molecule antagonists of the sonic hedgehog signaling (Shh) pathway (AID 1259369); conditions: NIH/3T3 Gli1-Luc reporter, Shh antagonist, luminescence 24 h; series mostly up to 92.4 µM; activity change, negative = inhibition: at the top concentration; note: nearly all actives have a fitted effect of over 45% in size; for activity change, negative = inhibition: % is set by controls: 0 for no effect and ±100 for the full control effect
Outline: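 Gli1 transcriptional reporter (firefly Luc) in NIH/3T3 background, conditioned-medium activated. 24hr exposure, luminescence endpoint.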

| SMILES | Potency | activity change, negative = inhibition |
| --- | --- | --- |
| COC(=O)C1=C(C)NC(C)=C(C(=O)OCCN2CCN(C(c3ccccc3)c3ccccc3)CC2)C1c1cccc([N+](=O)[O-])c1 (stereo not given) | inconclusive: 29.8 µM [inhibitor, single point] | – |
| O=C1[C@H]2CCCC[C@H]2C(=O)N1CCCCN1CCN(c2nsc3ccccc23)CC1 | active: 23.7 µM | – |
| O=C1c2c(O)ccc(Nc3ccc(CCO)cc3)c2C(=O)c2c([N+](=O)[O-])ccc(O)c21 | inconclusive: 30.6 µM [inhibitor, partial curve] | – |
| CCOC(=O)C1=C(C)NC(C)=C(C(=O)OC)C1c1cccc([N+](=O)[O-])c1 (stereo not given) | inconclusive: 5.96 µM [inhibitor, partial curve, poor fit] | – |
| CCOC(=O)O[C@]1(C(=O)OCCl)CC[C@H]2[C@@H]3CCC4=CC(=O)C=C[C@]4(C)[C@H]3[C@@H](O)C[C@@]21C | inconclusive: 0.0168 µM [inhibitor, full curve] | – |
| CCCCC(=O)O[C@]1(C(=O)CO)[C@@H](C)C[C@H]2[C@@H]3CCC4=CC(=O)C=C[C@]4(C)[C@@]3(F)[C@@H](O)C[C@@]21C | inconclusive: 6.86 µM [inhibitor, single point] | – |
| Fc1ccc([C@@H]2CCNC[C@H]2COc2ccc3c(c2)OCO3)cc1 | – | inactive: -24.2% [at 42.5 µM] |
| COc1cc2c(cc1OC)C(C(C(=O)N(CCc1ccc(OC)c(OC)c1OC)CCc1ccc(OC)c(OC)c1OC)c1ccccc1)=NCC2 (stereo not given) | inconclusive: 16.8 µM [inhibitor, partial curve, poor fit] | – |
| OC(Cn1cncn1)(Cn1cncn1)c1ccc(F)cc1F | inconclusive: 0.219 µM [inhibitor, partial curve] | – |
| CCCCCCC[N+](CC)(CC)CCCCc1ccc(Cl)cc1 | active: 0.168 µM | – |
| Cc1ccc(S(=O)(=O)C(I)I)cc1 | active: 1.22 µM | – |
| COc1ccccc1N=Nc1c(S(=O)(=O)O)cc2cc(S(=O)(=O)O)cc(NC(C)=O)c2c1O | inconclusive: 12.9 µM [inhibitor, full curve] | – |
| CC[C@H]1OC(=O)[C@H](C)[C@@H](O[C@H]2C[C@@](C)(OC)[C@@H](O)[C@H](C)O2)[C@H](C)[C@@H](O[C@@H]2O[C@H](C)C[C@H](N(C)C)[C@H]2O)[C@](C)(O)C[C@@H](C)CN(C)[C@H](C)[C@@H](O)[C@]1(C)O | inconclusive: 2.56 µM [inhibitor, full curve] | – |
| Cc1nc2c([nH]1)c(=O)n(C)c(=O)n2Cc1ccco1 | inconclusive: 5.31 µM [inhibitor, partial curve] | – |
| C/C=C/C=C/C=O | inconclusive: 60.7 µM [inhibitor, single point] | – |
| CCCCCCCCCCCCCCN(C)C | – | inactive: 19.6% [at 19 µM] |
| CC(C)Cc1ccc(CC(=O)O)cc1 | inconclusive: 16.8 µM [inhibitor, full curve, poor fit] | – |
| CN(C)Cc1cc(C(C)(C)C)c(O)c(C(C)(C)C)c1 | inconclusive: 54.5 µM [inhibitor, partial curve, poor fit] | – |
| CC(C)(CO)COC(=O)C(C)(C)CO | inactive | – |
| O=C(/C=C/c1ccc(O)c(O)c1)O[C@@H](C(=O)O)[C@@H](OC(=O)/C=C/c1ccc(O)c(O)c1)C(=O)O | inconclusive: 24.3 µM [inhibitor, full curve, poor fit] | – |
| CCCCCCCCCCCCCCC[C@H](O)[C@@H](N)CO | – | inactive: 7.55% [at 42.5 µM] |
| CCCNCCC | – | inactive: -7.14% |
| O=C(O)c1cc(Cl)cc(Cl)c1O | inconclusive: 34.4 µM [inhibitor, single point] | – |
| O=C(CCCN1CCN(c2ccc(F)cc2)CC1)NC1c2ccccc2CSc2ccccc21 (stereo not given) | inconclusive: 16.8 µM [inhibitor, single point] | – |
